± gives the uncertainty stated by the source. The sequences are guide strands of siRNAs; only the seed at positions 2 to 7 varies.
Experiments:
[1] = tested on: 3LL; test: cell viability relative to siNT1 control; higher = less toxic; conditions: concentration: 10 nM; 96 h; Mus musculus;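 also: Luminescence-based viability of cells reverse transfected in 384-well plates with lipid-complexed siRNAs built on a non-toxic 19mer backbone whose passenger strand carries 2′-O-methyl groups at positions 1 and 2, triplicates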
[2] = tested on: H460; test: cell viability relative to lipid-only control; HeyA8 human ovarian and H460 human lung cancer; M565 mouse liver and 3LL mouse lung cancer; siNT1 is a non-toxic control siRNA; higher = less toxic; conditions: concentration: 10 nM; 96 h; Homo sapiens
[3] = tested on: HeyA8; test: as above; conditions: concentration: 10 nM; 96 h; Homo sapiens
[4] = tested on: M565; test: as above; conditions: concentration: 10 nM; 96 h; Mus musculus
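For cell viability relative to lipid-only control in this document: reverse lipid transfection in 384-well plates, in triplicate, of duplexes on a non-toxic 19mer backbone with passenger strand 2′-O-methylated at positions 1 and 2, luminescence viability read-out.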

Sequence	cell viability [1]	cell viability [2]	cell viability [3]	cell viability [4]
UUGGGACACAUGUAAACCAAA	29.4 ± 9.5%	64.4 ± 4.3%	47.1 ± 7.1%	19.5 ± 1.8%
UUGGGAGACAUGUAAACCAAA	9.1 ± 0.46%	18.3 ± 1.7%	12.3 ± 1.1%	56.5 ± 21%
UUGGGAUACAUGUAAACCAAA	15.5 ± 3.5%	53.8 ± 2.2%	60.8 ± 1.6%	20.8 ± 1.5%
UUGGGCAACAUGUAAACCAAA	49.4 ± 7.8%	60.8 ± 5.6%	67.7 ± 5.5%	68.8 ± 11%
UUGGGCCACAUGUAAACCAAA	25.7 ± 0.93%	28.1 ± 1.7%	19.9 ± 6%	13.5 ± 3.7%
UUGGGCGACAUGUAAACCAAA	23.4 ± 3.7%	30 ± 3.4%	14.6 ± 2.8%	47.7 ± 3.4%
UUGGGCUACAUGUAAACCAAA	11.5 ± 2.7%	18.5 ± 0.96%	12.1 ± 0.59%	28.1 ± 1.7%
UUGGGGAACAUGUAAACCAAA	65.6 ± 5.9%	43.8 ± 3.5%	31.74 ± 0.12%	40 ± 2.5%
UUGGGGCACAUGUAAACCAAA	5.88 ± 1.9%	38.1 ± 2.6%	13 ± 1%	27.5 ± 3.3%
UUGGGGGACAUGUAAACCAAA	12.9 ± 4.6%	19 ± 1.7%	4.28 ± 0.67%	8.81 ± 1.8%
UUGGGGUACAUGUAAACCAAA	17.4 ± 9.4%	43.4 ± 1.7%	22.2 ± 0.81%	28.8 ± 8.7%
UUGGGUAACAUGUAAACCAAA	33.2 ± 3.7%	54.9 ± 7.9%	69.8 ± 2%	74.7 ± 13%
UUGGGUCACAUGUAAACCAAA	5.8 ± 3%	23.7 ± 1.3%	33.5 ± 6.1%	17.6 ± 1.9%
UUGGGUGACAUGUAAACCAAA	14.6 ± 4.3%	23.3 ± 0.73%	22.7 ± 2.6%	26.3 ± 1.3%
UUGGGUUACAUGUAAACCAAA	20.4 ± 3.1%	63.6 ± 12%	64.4 ± 4.5%	64.9 ± 4.2%
UUGGUAAACAUGUAAACCAAA	92.7 ± 6.2%	71.6 ± 6.8%	84.3 ± 6.4%	98.6 ± 11%
UUGGUACACAUGUAAACCAAA	75.4 ± 4.5%	51 ± 8%	39.1 ± 3%	82.2 ± 13%
UUGGUAGACAUGUAAACCAAA	52.7 ± 5.1%	45.7 ± 3.1%	55.6 ± 4.1%	84.3 ± 9.1%
UUGGUAUACAUGUAAACCAAA	96.9 ± 8.6%	59.8 ± 4.5%	49.9 ± 5.8%	89.3 ± 24%
UUGGUCAACAUGUAAACCAAA	94.2 ± 11%	44.2 ± 1.9%	87.1 ± 3.5%	122 ± 25%

Sequence	cell viability [1]	cell viability [2]	cell viability [3]	cell viability [4]
UUGGUCCACAUGUAAACCAAA	62.1 ± 3.1%	60.1 ± 1.4%	72.8 ± 5.4%	41.4 ± 13%
UUGGUCGACAUGUAAACCAAA	86.7 ± 4.9%	58.8 ± 9.6%	70.3 ± 7%	121 ± 22%
UUGGUCUACAUGUAAACCAAA	77.6 ± 10%	52 ± 3.4%	82.9 ± 2.5%	106 ± 11%
UUGGUGAACAUGUAAACCAAA	26.4 ± 1.9%	64.5 ± 3.4%	73.3 ± 2.7%	59.9 ± 6.1%
UUGGUGCACAUGUAAACCAAA	17.5 ± 2%	49.7 ± 1.4%	68.7 ± 8%	20.2 ± 2%
UUGGUGGACAUGUAAACCAAA	10.2 ± 1.6%	9.15 ± 0.72%	13.4 ± 0.89%	49.8 ± 8.9%
UUGGUGUACAUGUAAACCAAA	81.3 ± 2.6%	69.5 ± 7.4%	77.1 ± 4.7%	70.1 ± 23%
UUGGUUAACAUGUAAACCAAA	97.9 ± 6.3%	71.1 ± 7.9%	96.7 ± 5.7%	87.1 ± 12%
UUGGUUCACAUGUAAACCAAA	92.3 ± 13%	73.1 ± 3.9%	80.1 ± 15%	88.3 ± 18%
UUGGUUGACAUGUAAACCAAA	93.9 ± 10%	69.9 ± 8.7%	87 ± 7.2%	76.5 ± 13%
UUGGUUUACAUGUAAACCAAA	101 ± 10%	107 ± 22%	96.1 ± 9%	96.6 ± 19%
UUGUAAAACAUGUAAACCAAA	99.1 ± 8.8%	64.6 ± 5.7%	87 ± 2.6%	81.1 ± 18%
UUGUAACACAUGUAAACCAAA	52.5 ± 6%	63.5 ± 11%	80.1 ± 2.7%	52.6 ± 7.3%
UUGUAAGACAUGUAAACCAAA	74.7 ± 3%	48.9 ± 5.9%	77.4 ± 1.5%	65.6 ± 12%
UUGUAAUACAUGUAAACCAAA	51.6 ± 1.3%	76.8 ± 5.2%	67.9 ± 0.84%	64.6 ± 7.3%
UUGUACAACAUGUAAACCAAA	33.6 ± 5.1%	68.4 ± 13%	75.6 ± 3.3%	61.4 ± 7.5%
UUGUACCACAUGUAAACCAAA	16.7 ± 4%	49.8 ± 2.8%	62.6 ± 1.3%	24.7 ± 2.4%
UUGUACGACAUGUAAACCAAA	84.6 ± 3.7%	70.6 ± 8.5%	89.1 ± 3%	101 ± 13%
UUGUACUACAUGUAAACCAAA	39.7 ± 2%	46.9 ± 9.3%	60.9 ± 5.5%	41.4 ± 13%
UUGUAGAACAUGUAAACCAAA	62 ± 6.4%	63.7 ± 6.3%	59.9 ± 4.4%	29.1 ± 8.2%

Sequence	cell viability [1]	cell viability [2]	cell viability [3]	cell viability [4]
UUGUAGCACAUGUAAACCAAA	12.5 ± 5.3%	48.3 ± 7.3%	39.5 ± 3.4%	16.4 ± 1.9%
UUGUAGGACAUGUAAACCAAA	7.39 ± 1.3%	42.5 ± 7%	50.2 ± 2.3%	14.5 ± 0.78%
UUGUAGUACAUGUAAACCAAA	47.3 ± 1%	23.9 ± 3.1%	5.4 ± 0.33%	18.8 ± 3.5%
UUGUAUAACAUGUAAACCAAA	82.3 ± 14%	80.2 ± 15%	88.6 ± 2.1%	61.7 ± 16%
UUGUAUCACAUGUAAACCAAA	35.2 ± 1%	31.5 ± 1.4%	8.57 ± 0.39%	58.6 ± 6.7%
UUGUAUGACAUGUAAACCAAA	64.7 ± 6.6%	78.2 ± 6.1%	67.6 ± 3%	58.8 ± 13%
UUGUAUUACAUGUAAACCAAA	72.7 ± 4%	69.8 ± 10%	68.5 ± 3%	74.1 ± 21%
UUGUCAAACAUGUAAACCAAA	74.6 ± 7.3%	83.3 ± 12%	99 ± 14%	88.1 ± 11%
UUGUCACACAUGUAAACCAAA	40.7 ± 1.1%	66 ± 6.3%	76.6 ± 5%	42.9 ± 7.7%
UUGUCAGACAUGUAAACCAAA	48.9 ± 1.5%	87.8 ± 5.5%	97.1 ± 17%	115 ± 20%
UUGUCAUACAUGUAAACCAAA	56 ± 7.1%	59.2 ± 2.5%	62.1 ± 2.3%	62.2 ± 11%
UUGUCCAACAUGUAAACCAAA	66.7 ± 5.6%	61.1 ± 8.5%	87.4 ± 8.5%	45.5 ± 2.8%
UUGUCCCACAUGUAAACCAAA	16.8 ± 3.9%	24.7 ± 3.9%	20.2 ± 0.96%	5.61 ± 0.29%
UUGUCCGACAUGUAAACCAAA	59.8 ± 5.7%	54.5 ± 5.8%	91.8 ± 10%	38.6 ± 2.5%
UUGUCCUACAUGUAAACCAAA	29.7 ± 0.74%	41.8 ± 7.6%	80.5 ± 5.9%	31.1 ± 5.5%
UUGUCGAACAUGUAAACCAAA	74.3 ± 11%	62.2 ± 9.2%	89.3 ± 2.6%	64.6 ± 18%
UUGUCGCACAUGUAAACCAAA	24.1 ± 3.6%	62.3 ± 5%	48.1 ± 3%	41.8 ± 2.7%
UUGUCGGACAUGUAAACCAAA	52.1 ± 6%	69.2 ± 13%	93.8 ± 6.1%	81.9 ± 14%
UUGUCGUACAUGUAAACCAAA	44.1 ± 1%	62.8 ± 4.8%	79.8 ± 2.8%	45 ± 7%
